The list shows a part of the results. The protein was read in a cell extract, so binding may be indirect.
The sequences below were run against T1, FLI1 (endogenous, THP-1 nuclear extract) (UniProt Q01543) (assay: nuclear extract protein-binding microarray (nextPBM)). Conditions: 20 mM HEPES pH 7.9, 100 mM NaCl, 1 mM DTT, 0.2 mg/mL BSA, 0.02% Triton X-100, 2% milk, 0.4 mg/mL salmon testes DNA; 1 h; temperature not stated; high values mean tight binding; double strand, one strand shown; sequences stand for … in GCCTAGCAC…GTGCTAGGTCTTGATTCGCTTGACGCTGCTG.
T1 sequence: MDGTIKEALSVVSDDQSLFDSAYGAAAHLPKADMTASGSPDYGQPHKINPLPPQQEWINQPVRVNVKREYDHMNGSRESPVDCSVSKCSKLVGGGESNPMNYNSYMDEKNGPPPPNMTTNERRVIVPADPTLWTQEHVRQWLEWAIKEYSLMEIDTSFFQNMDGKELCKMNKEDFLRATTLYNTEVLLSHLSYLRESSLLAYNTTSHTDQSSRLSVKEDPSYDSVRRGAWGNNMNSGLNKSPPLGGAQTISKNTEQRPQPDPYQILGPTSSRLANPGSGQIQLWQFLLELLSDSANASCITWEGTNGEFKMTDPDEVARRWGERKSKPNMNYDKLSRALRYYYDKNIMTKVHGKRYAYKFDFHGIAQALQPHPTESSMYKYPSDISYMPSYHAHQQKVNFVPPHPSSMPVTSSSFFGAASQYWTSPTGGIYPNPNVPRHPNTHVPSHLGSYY

Sequence	binding signal [z-score]
AGTCAGCAAACACCCACCAC	-1.04
GCATCGTCGGTGTATTTTGT	-0.272
TCCCTTCCATGGACAGGGGA	0.172
GCCAGCCCCCAACCCTGGTC	-0.844
TTCCCCGCAGGCCGGGCCGA	1.52
ATTGCAGTGAGCTGTGACCA	-0.555
TATCTGCTGTATATCATTGG	-0.202
TTCCTCACAGTGAGGAAGAG	3.04
TTTCAGTCTTCAATCCCTGA	-0.561
TTTTTAACAAGAAGTTCTTG	-0.136
GCACATAGCCTGGCATTTAG	-0.356
CTTGAAGAGAACACAACGCT	-0.708
GGGAGTTTTAGAAGTTGGAG	-0.421
ATTTTAGCTGCCTGAAAGCC	-0.608
TCCACAGCAAGGCTGCCGTG	-0.632
AGTCAGCCTGGTGGCCTTCT	-0.48
TAAAAGGAAAAGAGGGCTCC	0.386
GTCACTCTCAGATACTGCCA	-0.777
GGCCCTGGGTGGCAGGTTTG	0.03
TGAGGGGATCGACATTGAAA	-0.8

Sequence	binding signal [z-score]
GAGTGAACTCACGTCCACAC	-0.289
ACAAAAATACTATCTGACAC	-0.574
CCATGCATAAAATTTTATGA	-0.313
TTCTTTCGCAGGTCAGGGCA	-0.294
GGATCCGCTGGGAGGGGTGG	-0.153
AAGGTTCTAGAGATCTATTG	-0.205
AGGCAGTGAGCTAAGATTGC	-0.383
GCTGCCTGAAAATGTGGCTC	-0.144
TTGCACAAGGAGGAAGTGAG	3.51
CAGGAGTTCGAGACCAGCTT	-0.668
AGGGAGCAGCCTCCTGACTT	-1.06
AAAGACGCTGTCTAAAATAT	-0.29
TTCCACCCCCTCAGAGGAAG	2
CTGGCAGCTGCCTGAAACTC	-0.275
AGATTGTCTGCGTGAAAGTA	-0.563
CTCCAAATGCATTTCTTGGT	-0.253
GGGATGTATCCTTGTGGTTG	0.913
TACGTTTTTCAGAGAATTTC	-0.0218
CGCAAGGCTGCCTGAAACTC	-0.468
ATAAAGATACATTCATTCTC	-0.301

These sequences were tested on PU.1 (endogenous, THP-1 nuclear extract) + IRF8 (endogenous, THP-1 nuclear extract) in the same assay as above. Conditions: 20 mM HEPES pH 7.9, 100 mM NaCl, 1 mM DTT, 0.2 mg/mL BSA, 0.02% Triton X-100, 2% milk, 0.4 mg/mL salmon testes DNA; 1 h; temperature not stated; high values mean tight binding; double strand, one strand shown; sequences stand for … in GCCTAGCAC…GTGCTAGGTCTTGATTCGCTTGACGCTGCTG.

Sequence	binding signal [z-score]
AGTCAGCAAACACCCACCAC	0.293
GCATCGTCGGTGTATTTTGT	0.159
TCCCTTCCATGGACAGGGGA	-2.01
GCCAGCCCCCAACCCTGGTC	-0.181
TTCCCCGCAGGCCGGGCCGA	1.47
ATTGCAGTGAGCTGTGACCA	-1.28
TATCTGCTGTATATCATTGG	0.398
TTCCTCACAGTGAGGAAGAG	-0.27
TTTCAGTCTTCAATCCCTGA	3.75
TTTTTAACAAGAAGTTCTTG	-2.08
GCACATAGCCTGGCATTTAG	-0.81
CTTGAAGAGAACACAACGCT	0.464
GGGAGTTTTAGAAGTTGGAG	-0.34
ATTTTAGCTGCCTGAAAGCC	-1.2
TCCACAGCAAGGCTGCCGTG	0.752
AGTCAGCCTGGTGGCCTTCT	0.515
TAAAAGGAAAAGAGGGCTCC	0.634
GTCACTCTCAGATACTGCCA	1.12
GGCCCTGGGTGGCAGGTTTG	0.544
TGAGGGGATCGACATTGAAA	4.01

Sequence	binding signal [z-score]
GAGTGAACTCACGTCCACAC	0.959
ACAAAAATACTATCTGACAC	-0.401
CCATGCATAAAATTTTATGA	-1.3
TTCTTTCGCAGGTCAGGGCA	0.891
GGATCCGCTGGGAGGGGTGG	0.889
AAGGTTCTAGAGATCTATTG	0.0721
AGGCAGTGAGCTAAGATTGC	0.118
GCTGCCTGAAAATGTGGCTC	-0.485
TTGCACAAGGAGGAAGTGAG	0.447
CAGGAGTTCGAGACCAGCTT	0.572
AGGGAGCAGCCTCCTGACTT	0.806
AAAGACGCTGTCTAAAATAT	-0.715
TTCCACCCCCTCAGAGGAAG	-0.725
CTGGCAGCTGCCTGAAACTC	2.15
AGATTGTCTGCGTGAAAGTA	0.687
CTCCAAATGCATTTCTTGGT	0.0526
GGGATGTATCCTTGTGGTTG	0.366
TACGTTTTTCAGAGAATTTC	-1.11
CGCAAGGCTGCCTGAAACTC	1.98
ATAAAGATACATTCATTCTC	-0.74
